Experimental data: publication PMC2752191
No constants are given. Whether binding was seen depends on the method and setting. For part of these data: In cells and extracts the contact can be indirect. Some results given as binding are weak or reduced against the parent protein; the word gives no strength. For part of these data: Sequences can lack the tags named with a protein.

Amino acid sequences for entries named in this document (tags omitted). A change or cut given only in a name is not applied to a line headed by its entry.
UniProt Q14457: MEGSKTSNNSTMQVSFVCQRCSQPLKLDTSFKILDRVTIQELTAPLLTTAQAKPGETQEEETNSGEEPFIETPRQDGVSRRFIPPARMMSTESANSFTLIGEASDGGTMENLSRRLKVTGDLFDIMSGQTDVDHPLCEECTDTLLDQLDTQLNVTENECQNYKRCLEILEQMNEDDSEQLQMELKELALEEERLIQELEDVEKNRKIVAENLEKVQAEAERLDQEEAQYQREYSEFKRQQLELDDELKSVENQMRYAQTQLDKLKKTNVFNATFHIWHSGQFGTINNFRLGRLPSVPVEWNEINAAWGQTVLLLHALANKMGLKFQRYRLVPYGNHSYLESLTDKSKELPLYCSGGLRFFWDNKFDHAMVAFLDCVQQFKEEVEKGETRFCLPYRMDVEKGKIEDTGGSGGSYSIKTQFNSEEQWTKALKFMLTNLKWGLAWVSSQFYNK

Tests used:
[1] = target: T1, wild-type vBcl-2 in pGBKT7 (yeast two-hybrid) (murine γ-herpesvirus 68 (γHV68)) (UniProt P89884); experiment: two-hybrid; GAL4-based; yeast AH109 expressing the Beclin1 BH3-like domain (88-150) fused to the Gal4 activation domain (pGADT7), transformed with pGBKT7 plasmids of vBcl-2 and its mutants; α-galactosidase activity
T1 sequence: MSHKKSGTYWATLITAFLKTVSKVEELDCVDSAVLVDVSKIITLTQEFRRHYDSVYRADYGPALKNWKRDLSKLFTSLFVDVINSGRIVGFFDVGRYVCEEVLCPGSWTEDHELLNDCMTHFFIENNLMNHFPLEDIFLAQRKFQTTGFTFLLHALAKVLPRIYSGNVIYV

[2] = target: vBcl-2 with a deletion of the BH2 domain only, in pGBKT7 (yeast two-hybrid) (murine γ-herpesvirus 68 (γHV68)) (UniProt P89884); experiment: as above
[3] = target: HA-tagged vBcl-2 Δα7 (murine γ-herpesvirus 68 (γHV68)) (UniProt P89884); experiment: co-IP; 293T cells transfected with HA-vBcl-2 (WT or mutant) and V5-tagged Beclin1; immunoprecipitation of HA-vBcl-2, immunoblot of V5-Beclin1; 1% NP40 lysis buffer, 4°C
[4] = target: T2, HA-tagged wild-type vBcl-2 of γHV68 (murine γ-herpesvirus 68 (γHV68)) (UniProt P89884); experiment: as above
T2 sequence: T1 sequence

[5] = target: HA-tagged vBcl-2 ΔTM (murine γ-herpesvirus 68 (γHV68)) (UniProt P89884); experiment: as above
[6] = target: HA-tagged vBcl-2 Δα1 (murine γ-herpesvirus 68 (γHV68)) (UniProt P89884); experiment: as above
[7] = target: HA-tagged vBcl-2 ΔBH2 (murine γ-herpesvirus 68 (γHV68)) (UniProt P89884); experiment: as above
[8] = target: HA-tagged vBcl-2 Δα7 (murine γ-herpesvirus 68 (γHV68)) (UniProt P89884); experiment: co-IP; 293T cells transfected with HA-vBcl-2 constructs; immunoprecipitation of HA-vBcl-2, immunoblot of endogenous Beclin1; 1% NP40 lysis buffer, 4°C
[9] = target: T2, HA-tagged wild-type vBcl-2 of γHV68 (murine γ-herpesvirus 68 (γHV68)); experiment: as above
[10] = target: HA-tagged vBcl-2 ΔTM (murine γ-herpesvirus 68 (γHV68)) (UniProt P89884); experiment: as above
[11] = target: HA-tagged vBcl-2 Δα1 (murine γ-herpesvirus 68 (γHV68)) (UniProt P89884); experiment: as above
[12] = target: HA-tagged vBcl-2 ΔBH2 (murine γ-herpesvirus 68 (γHV68)) (UniProt P89884); experiment: as above

Q: “BH3-like domain (residues 88-150) of Beclin1 fused to the Gal4 activation domain (from UniProt Q14457 88-150) (domain or fragment)” was tested. Which binding [1] did it give?
A: binds

Q: What about the binding [2] of the same substance?
A: binds

Q: What does the source list for “V5-tagged Beclin1 (from UniProt Q14457 1-450)”?
A: binding [3]: binds; binding [4]: binds; binding [5]: binds; binding [6]: no binding; binding [7]: binds

Q: “endogenous Beclin1 of 293T cells (from UniProt Q14457 1-450)” was tested. Which binding [8] did it give?
A: binds

Q: What about the binding [9] of the same substance?
A: binds

Q: What about the binding [10] of the same substance?
A: binds

Q: What about the binding [11] of the same substance?
A: no binding

Q: What about the binding [12] of the same substance?
A: binds
